Results on 3 molecules are retold here after PMC8771550.

Sequences of proteins named here, by UniProt entry; tags and fusion partners are left off. Residues count along the entry.
UniProt P28741: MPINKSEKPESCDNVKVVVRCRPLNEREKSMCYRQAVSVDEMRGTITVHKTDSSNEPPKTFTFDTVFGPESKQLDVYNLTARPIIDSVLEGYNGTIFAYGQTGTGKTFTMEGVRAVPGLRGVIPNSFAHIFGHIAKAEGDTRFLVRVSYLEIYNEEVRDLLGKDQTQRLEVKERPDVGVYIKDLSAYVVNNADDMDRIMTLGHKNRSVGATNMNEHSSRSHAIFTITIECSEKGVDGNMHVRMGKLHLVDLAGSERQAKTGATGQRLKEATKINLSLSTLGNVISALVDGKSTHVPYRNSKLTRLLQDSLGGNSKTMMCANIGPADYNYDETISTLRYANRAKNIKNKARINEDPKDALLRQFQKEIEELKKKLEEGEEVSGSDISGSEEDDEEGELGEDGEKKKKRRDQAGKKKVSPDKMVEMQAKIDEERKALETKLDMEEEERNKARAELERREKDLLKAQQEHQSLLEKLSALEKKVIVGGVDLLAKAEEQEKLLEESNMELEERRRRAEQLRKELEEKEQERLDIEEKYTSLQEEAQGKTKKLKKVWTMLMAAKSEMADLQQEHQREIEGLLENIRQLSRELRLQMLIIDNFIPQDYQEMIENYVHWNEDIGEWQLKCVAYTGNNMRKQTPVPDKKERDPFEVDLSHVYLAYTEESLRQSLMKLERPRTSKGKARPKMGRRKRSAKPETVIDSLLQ
UniProt P56726, residues 33-793: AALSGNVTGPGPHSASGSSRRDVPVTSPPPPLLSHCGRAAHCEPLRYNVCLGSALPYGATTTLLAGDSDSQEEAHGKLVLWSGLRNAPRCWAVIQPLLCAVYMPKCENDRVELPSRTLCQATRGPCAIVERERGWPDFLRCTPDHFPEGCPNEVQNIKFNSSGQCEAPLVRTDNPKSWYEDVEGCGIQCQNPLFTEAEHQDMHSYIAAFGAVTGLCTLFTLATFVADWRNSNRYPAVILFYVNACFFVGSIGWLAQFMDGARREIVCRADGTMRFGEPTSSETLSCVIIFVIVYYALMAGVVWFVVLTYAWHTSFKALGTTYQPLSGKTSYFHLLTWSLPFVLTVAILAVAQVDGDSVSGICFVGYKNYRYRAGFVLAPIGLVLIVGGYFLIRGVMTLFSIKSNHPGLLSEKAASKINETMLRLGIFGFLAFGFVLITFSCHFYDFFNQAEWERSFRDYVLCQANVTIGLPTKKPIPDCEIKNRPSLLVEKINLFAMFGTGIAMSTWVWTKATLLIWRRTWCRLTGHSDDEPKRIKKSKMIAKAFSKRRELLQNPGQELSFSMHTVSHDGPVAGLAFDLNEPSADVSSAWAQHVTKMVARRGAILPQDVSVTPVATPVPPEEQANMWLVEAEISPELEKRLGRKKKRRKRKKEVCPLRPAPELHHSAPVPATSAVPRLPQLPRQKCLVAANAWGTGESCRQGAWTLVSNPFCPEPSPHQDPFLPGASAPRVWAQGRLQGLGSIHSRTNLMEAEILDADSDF

For assay [1], the target named is KIF3A, endogenous (mouse (endogenous in C3H10T1/2)) (UniProt P28741). As to the kind of experiment: co-IP; endogenous proteins; anti-KIF3A immunoprecipitates from total C3H10T1/2 cell lysates, blotted for IFT88; cells with MG132 10 μM, with or without daRac1 or NSC23766 10 μg/ml 24 h; IgG as negative control.
Assay [2] concerns the target Smoothened (Smo), endogenous (mouse (endogenous in C3H10T1/2)) (UniProt P56726). In words: co-IP; endogenous proteins; anti-Vav2 or anti-Smo immunoprecipitates from total C3H10T1/2 cell lysates, blotted for Smo, Vav2 or phospho-Vav2; cells with or without N-Shh 100 ng/ml 24 h; IgG as negative control.

Results are given in words; binding and its absence hold for the method and conditions named. Binding seen in cells or lysates may run through a third protein. Some entries that bind do so weakly or less than the wild type.

B1: IFT88, endogenous (protein, UniProt Q61371 1-824)
chain: MENVHLAPETDEDDLYSGFNDYNPAYDTEELENDTGFQQAVRTSHGRRPPVTAKIPSTAVSRPIATGYGSKTSLTSSMGRPMTGTIQDGVARPMTAVRAAGFSKAALRGSAFDPLGQSRGPAPPLEAKNEDSPEEKIRQLEKKVNELVEESCIANSCGDLKLALEKAKDAGRKERVLVRQREQVTSPENINLDLTYSVLFNLASQYSANEMYAEALNTYQVIVKNKMFSNAGRLKVNMGNIYLKQRNYSKAIKFYRMALDQIPSVHKEMRIKIMQNIGITFIKTGQYSDAINSFEHIMSMAPSLKAGFNLILSCFAIGDREKMKKAFQKLIAVPLEIDEDDKYISPSDDPHTNLLIEAIKNDHLRQMERERKAMAEKYIMTAAKLIAPVIEASFAVGYNWCVEVVKASQYVELANDLEINKAITYLRQKDFNQAVDTLKMFEKKDSRVKSAAATNLSFLYYLENEFAQASSYADLAVNSDRYNPSALTNKGNTVFANGDYEKAAEFYKEALRNDSSCTEALYNIGLTYKKLNRLDEALDSFLKLHAILRNSAQVLCQIANIYELMEDPNQAIEWLMQLISVVPTDSQALSKLGELYDSEGDKSQAFQYYYESYRYFPSNIEVIEWLGAYYIDTQFCEKAIQYFERASLIQPTQVKWQLMVASCFRRSGNYQKALDTYKEIHRKFPENVECLRFLVRLCTDIGLKEVQEYATKLKRLEKMKEMREQRIKSGRDSSGGSRSKREGSAGSDSGQNNSASSKSERLSAKLRALPGTDEPYESSGNKEIDASYVDPLGPQIERPKTAAKKRIDEDDFADEELGDDLLPE
In the case of B1, the binding result in assay [1] is given as “binds”.

B2: Vav2, endogenous (protein, UniProt Q60992 1-868)
chain: MEQWRQCGRWLIDCKVLPPNHRVVWPSAVVFDLAQALRDGVLLCQLLHNLSPGSIDLKDINFRPQMSQFLCLKNIRTFLKVCHDKFGLRNSELFDPFDLFDVRDFGKVISAVSRLSLHSIAQSKGIRPFPSEETAENDDDVYRSLEELADEHDLGEDIYDCVPCEDEGDDIYEDIIKVEVQQPMKMGMTEDDKRSCCLLEIQETEAKYYRTLEDIEKNYMGPLRLVLSPADMAAVFINLEDLIKVHHSFLRAIDVSMMAGGSTLAKVFLEFKERLLIYGEYCSHMEHAQSTLNQLLASREDFRQKVEECTLRVQDGKFKLQDLLVVPMQRVLKYHLLLKELLSHSADRPERQQLKEALEAMQDLAMYINEVKRDKETLKKISEFQCSIENLQVKLEEFGRPKIDGELKVRSIVNHTKQDRYLFLFDKVVIVCKRKGYSYELKEVIELLFHKMTDDPMHNKDIKKWSYGFYLIHLQGKQGFQFFCKTEDMKRKWMEQFEMAMSNIKPDKANANHHSFQMYTFDKTTNCKACKMFLRGTFYQGYLCTRCGVGAHKECLEVIPPCKMSSPADVDAPGAGPGPKMVAVQNYHGNPAPPGKPVLTFQTGDVIELLRGDPDSPWWEGRLVQTRKSGYFPSSSVKPCPVDGRPPTGRPPSREIDYTAYPWFAGNMERQQTDNLLKSHASGTYLIRERPAEAERFAISIKFNDEVKHIKVVEKDSWIHITEAKKFESLLELVEYYQCHSLKESFKQLDTTLKFPYKSRERTTSRASSRSPASCASYNFSFLSPQGLSFAPQAPSAPFWSVFTPRVIGTAVARYNFAARDMRELSLREGDVVKIYSRIGGDQGWWKGETNGRIGWFPSTYVEEEGVQ
B2: in assay [2], the binding result is “binds”.

B3: Y172-phospho-Vav2, endogenous (protein, UniProt Q60992 1-868)
chain: MEQWRQCGRWLIDCKVLPPNHRVVWPSAVVFDLAQALRDGVLLCQLLHNLSPGSIDLKDINFRPQMSQFLCLKNIRTFLKVCHDKFGLRNSELFDPFDLFDVRDFGKVISAVSRLSLHSIAQSKGIRPFPSEETAENDDDVYRSLEELADEHDLGEDIYDCVPCEDEGDDIYEDIIKVEVQQPMKMGMTEDDKRSCCLLEIQETEAKYYRTLEDIEKNYMGPLRLVLSPADMAAVFINLEDLIKVHHSFLRAIDVSMMAGGSTLAKVFLEFKERLLIYGEYCSHMEHAQSTLNQLLASREDFRQKVEECTLRVQDGKFKLQDLLVVPMQRVLKYHLLLKELLSHSADRPERQQLKEALEAMQDLAMYINEVKRDKETLKKISEFQCSIENLQVKLEEFGRPKIDGELKVRSIVNHTKQDRYLFLFDKVVIVCKRKGYSYELKEVIELLFHKMTDDPMHNKDIKKWSYGFYLIHLQGKQGFQFFCKTEDMKRKWMEQFEMAMSNIKPDKANANHHSFQMYTFDKTTNCKACKMFLRGTFYQGYLCTRCGVGAHKECLEVIPPCKMSSPADVDAPGAGPGPKMVAVQNYHGNPAPPGKPVLTFQTGDVIELLRGDPDSPWWEGRLVQTRKSGYFPSSSVKPCPVDGRPPTGRPPSREIDYTAYPWFAGNMERQQTDNLLKSHASGTYLIRERPAEAERFAISIKFNDEVKHIKVVEKDSWIHITEAKKFESLLELVEYYQCHSLKESFKQLDTTLKFPYKSRERTTSRASSRSPASCASYNFSFLSPQGLSFAPQAPSAPFWSVFTPRVIGTAVARYNFAARDMRELSLREGDVVKIYSRIGGDQGWWKGETNGRIGWFPSTYVEEEGVQ
modifications: phosphotyrosine at 172
As for B3, in assay [2], the binding entry is “binds”.
